Here are results for 65 molecules from PubChem BioAssay AID686979 (National Center for Advancing Translational Sciences (NCATS), 2013).

Out of some 420,000 compounds screened, about 50,000 (12%) were called active. Roughly 26% stayed inconclusive and do not appear here. The call rests on the fitted dose curve; in most records, active means well fitted inhibition curve with a large enough effect; inconclusive means small, poorly fitted or top-dose-only effect; inactive means flat fitted curve, though single readings scatter. The list shows a part of the results, in another mix than the full data.
On the % scale 0 is the no-effect control and ±100 the full control effect; potency means the concentration at half of the fitted maximal effect.

This assay is described as follows: qHTS for Inhibitors of human tyrosyl-DNA phosphodiesterase 1 (TDP1): qHTS in cells in presence of CPT. Further: nearly all actives have a fitted effect of over 55% in size. The note with it: chicken DT40 Tdp1-/-;hTDP1 cells + 20 nM CPT, ATP luminescence, 48 h; series mostly up to 46.2 µM; activity change, negative = growth inhibition: at the top concentration. In short, it runs like this:
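Chicken DT40 Tdp1-/- cells stably complemented with human TDP1 were seeded at 400 cells/well in medium containing 20 nM camptothecin, exposed to pin-transferred compounds, and grown at 37 °C for at least 48 hr. Viability was read as ATP luminescence.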
For `CC(=O)OC(C)C[N+](C)(C)C` (stereo not given), the Potency result is “inactive”. With `COCCNC(=S)N1CCN(S(C)(=O)=O)CC1`, the “activity change, negative = growth inhibition” value is inactive: 34.5%. Take `O=C(O)c1cc(=O)c2c(OCC(O)COc3cccc4oc(C(=O)O)cc(=O)c34)cccc2o1`: the Potency entry is “inactive”. `CCN(CC)C(=O)COc1ccc(-c2nnc(Nc3ccc(OC)c(C(=O)NC)c3)c3ccccc23)cc1`: the “activity change, negative = growth inhibition” value was inactive: -21.2%.

For `C[C@H]1CN([C@@H](C)CO)C(=O)CCCn2nncc2CO[C@@H]1CN(C)S(=O)(=O)c1ccc2ccccc2c1`, the “activity change, negative = growth inhibition” value was inactive: -27%. Regarding `CCCC(C(=O)OCCN(CC)CC)(c1ccccc1)c1ccccc1`, the “activity change, negative = growth inhibition” value is inactive: -19.4%. As to `COc1ccc(NC(=O)c2c(C)oc3ccc(O)c(CN4CCN(Cc5ccccc5)CC4)c23)cc1Cl`, the Potency was active: 18.4 µM. With `CCN(CC)c1c([N+](=O)[O-])c(=O)sc2ccccc12`, the “activity change, negative = growth inhibition” value is inactive: -26.6%. Consider `CC(CN1CCOCC1)OC(=O)/C=C/c1ccccc1` (stereo not given), for which the “activity change, negative = growth inhibition” value is inactive: 30.8%. Consider `Cc1ccc(C(=O)C(C)CN2CCCCC2)cc1` (stereo not given), for which the “activity change, negative = growth inhibition” value was inactive: 8.34%. Same read-out and setting: the result for `O=C(O)C1CCCN1C(=O)C12CC3CC(CC(C3)C1)C2` (stereo not given) reads inactive: 39%. For `CCc1ccc(C(C)NC(=O)C2CCCC2)cc1` (stereo not given), the “activity change, negative = growth inhibition” value is inactive: 30.7%. For the molecule `CCCC(=O)Nc1ccc(NC(=O)C2CC2)cn1`, the “activity change, negative = growth inhibition” value is inactive: 20%. Still for that read-out and setting: the result for `O=C(O)Cc1ccc(O)c(O)c1` reads inactive: -11.8%.

Turning to `CCCc1nc2c(C)cc(-c3nc4ccccc4n3C)cc2n1Cc1ccc(-c2ccccc2C(=O)O)cc1`, the “activity change, negative = growth inhibition” value is inactive: -6.68%. For `CC(C)(C)OC(=O)Nc1ccc([C@H](NC(=O)OC(C)(C)C)C(=O)OC(C)(C)C)cc1`, the “activity change, negative = growth inhibition” value is inactive: -24.5%. Turning to `CCN(CC)C(=O)[C@H]1C[C@H](CC(=O)NCC23CC4CC(CC(C4)C2)C3)C(=O)N2CCc3c([nH]c4ccc(Cl)cc34)[C@]12C`, the Potency was active: 16.4 µM.

For the molecule `O=C(CN1C(=O)NC2(CCCC2)C1=O)Nc1ccccc1`, the “activity change, negative = growth inhibition” value is inactive: 31.7%.

Turning to `COc1ccc([C@H]2CC(=O)C=C(c3ccnc4ccc(Cl)cc34)C2)cc1`, the Potency is active: 8.2 µM. As for `NC(C(=O)NC1C(=O)N2C(C(=O)O)=C(Cl)CSC12)c1ccccc1` (stereo not given), the “activity change, negative = growth inhibition” value is inactive: -19.7%.

For `CCc1ccc(-c2cc(C)no2)cc1S(=O)(=O)Nc1ccc(C)cn1`, the “activity change, negative = growth inhibition” value was inactive: -28.6%. Turning to `O=C(Nc1cccc2ncccc12)c1ccc(Cl)cc1`, the “activity change, negative = growth inhibition” value is inactive: 24.9%. As for `CCN1CCSc2ccc(C(=O)NCc3ccccc3Br)cc21`, the “activity change, negative = growth inhibition” value is inactive: -100%. For the molecule `COc1ccc(CCNC(=O)/C(C#N)=C/c2ccc(OCC(=O)NCC3CCCO3)cc2)cc1OC` (stereo not given), the “activity change, negative = growth inhibition” value was inactive: -5.53%.

Consider `CC(C(=O)NCc1ccco1)n1cc([N+](=O)[O-])cn1` (stereo not given), for which the “activity change, negative = growth inhibition” value was inactive: 44.1%. In the case of `CCCC(=O)Nc1ccc(OCC(O)CNC(C)C)c(C(C)=O)c1` (stereo not given), the Potency entry is “inactive”. Take `Cc1ccc(C)c(N2CCN(C3=C(c4ccccc4)C(=O)c4ccccc43)CC2)c1`: the Potency is active: 7.31 µM.

Consider `C=C1C(=O)O[C@H]2[C@H]1[C@H](OC(=O)/C(C)=C\C)C[C@]1(CO1)[C@@H]1[C@H](OC(C)=O)C=C(C)[C@]21O`, for which the Potency is active: 11.6 µM. Consider `CS(=O)(=O)c1ncc(Cl)c(C(=O)Nc2ccc(OC(F)F)cc2)n1`, for which the Potency is active: 0.82 µM. In the case of `COc1ccc(CCNC(=O)c2cc3sccc3n2Cc2ccc(Cl)cc2)cc1OC`, the Potency is active: 13 µM.

For the molecule `CCOC(=O)c1cnc(-n2nc(C)cc2C)nc1Nc1ccc(C)cc1`, the Potency was active: 4.61 µM. For the molecule `CC1(c2ccc3ccccc3c2)NC(=O)N(CC(=O)NCc2cccs2)C1=O` (stereo not given), the “activity change, negative = growth inhibition” value is inactive: -22.5%. With `Nc1c(C(=O)c2ccc(Cl)cc2)oc2ccccc12`, the “activity change, negative = growth inhibition” value is inactive: 8.68%. For `O=C(Nc1ccc(F)c(Cl)c1)c1ccc2sc([C@H]3C[C@H](O)[C@@H](CO)O3)nc2c1`, the Potency is active: 18.4 µM. In the case of `COC(=O)c1ccccc1NC(=O)CCCn1nc(C)c2c(C)n(-c3ccccc3)nc2c1=O`, the “activity change, negative = growth inhibition” value was inactive: -20.9%. As for `O=C(Cc1ccc(Cl)cc1)Nc1ccc(Cl)cn1`, the “activity change, negative = growth inhibition” value was inactive: 38.2%. On to `COc1ccc(OC)c(/C=C/c2ccc3ccccc3[n+]2C)c1`, for which the Potency is active: 2 µM. Still for that read-out and setting: the result for `C=CC(C)N1C(=O)S/C(=C\c2ccc(N3CCOCC3)cc2C)C1=O` (stereo not given) reads active: 20.6 µM. As to `Cc1onc(-c2ccccc2)c1C(=O)N1CCCSC1=Nc1ccccc1`, the “activity change, negative = growth inhibition” value is inactive: 38.7%. With `O=C(COC(=O)c1cccnc1Cl)NC1CCCc2ccccc21` (stereo not given), the “activity change, negative = growth inhibition” value is inactive: -4.2%. In the case of `O=C(O)c1n[nH]nc1-c1ccccc1`, the “activity change, negative = growth inhibition” value was inactive: 44.8%. Turning to `C#CCOCCOCCOCCNc1nc(N2CCN(C(=O)C([C@@H](C)O)n3cc([C@@H](N)CCCCN)nn3)CC2)nc(N2CCN(C(=O)[C@H](CCCN=C(N)N)n3cc(C(N)[C@@H](C)CC)nn3)CC2)n1` (stereo not given in full), the “activity change, negative = growth inhibition” value is inactive: 31.2%. Turning to `O=C(CCn1c(=O)[nH]c2ccccc2c1=O)Nc1ccccc1`, the “activity change, negative = growth inhibition” value was inactive: 37.6%. For the molecule `COc1c(O)cc2c(c1O)[C@@H]1OC(CO)C(O)C(O)[C@H]1OC2=O` (stereo not given in full), the “activity change, negative = growth inhibition” value is inactive: 0.362%. In the case of `CCCC(CCC(=O)Nc1ccc(C(=O)OC)cc1)C(=O)O` (stereo not given), the “activity change, negative = growth inhibition” value is inactive: 32.4%.

`COc1nnc(-c2ccc(N3CCCCC3)c(NC(=O)c3ccccc3Cl)c2)c2ccccc12`: the Potency was active: 6.51 µM.

Turning to `COc1cc2ccc(=O)oc2cc1O`, the Potency entry is “inactive”. In the case of `COc1cc(NS(=O)(=O)c2ccc(N)cc2)nc(OC)n1`, the Potency result was “inactive”. For `Cc1cccc(CNC(=O)c2ccc3c(c2)N(C)C(=O)C2CCCCN32)c1` (stereo not given), the Potency is active: 13 µM. As for `O=C(Nc1ncccn1)C12CC3CC(CC(C3)C1)C2`, the “activity change, negative = growth inhibition” value was inactive: 40.9%. As to `CSc1ncnc2c1ncn2CCCNCCCc1ccccc1`, the “activity change, negative = growth inhibition” value is inactive: 5.91%. As to `Cc1nn(CC(=O)NCC2CCCO2)c(=O)c2cc3ccccc3n12` (stereo not given), the “activity change, negative = growth inhibition” value is inactive: 40.8%. The same measure, in the same setting: with `CCOC(=O)[C@@H]1[C@H]2COc3cc(OC)ccc3[C@@H]2N2C(=O)N(c3ccc(C)cc3)C(=O)[C@@]12C` the figure was inactive: -18.7%; with `COC(=O)[C@@H]1[C@H](CCc2ccccc2)NC(=O)N(Cc2ccccc2)[C@@H]1C`, inactive: -8.12%. Turning to `COc1cc(NC(=O)C2CCCN2S(=O)(=O)c2cccc3cccnc23)cc(OC)c1OC` (stereo not given), the “activity change, negative = growth inhibition” value was inactive: -0.757%. Turning to `COc1ccc(NS(=O)(=O)c2cc3c(cc2C)NC(=O)CO3)c(OC)c1`, the “activity change, negative = growth inhibition” value was inactive: -6.26%. Still for that read-out and setting: the result for `Cc1c(NC(=O)c2c(O)c3ccccc3n(C)c2=O)c(=O)n(-c2ccccc2)n1C` reads inactive: 39.4%; that for `CN(C)CC[C@@H](c1ccc(Br)cc1)c1ccccn1`, inactive: -24.3%; that for `Cc1ccc(O)c(NC(=O)c2noc3c2CCCCC3)c1`, inactive: -2.42%. Still for that read-out and setting: the result for `CCc1c(C)nc2c(OC)cccc2c1Cl` reads inactive: -25.1%. In the case of `CC(C)c1ccc(NC(=O)C2CCN(S(=O)(=O)c3ccc4c(c3)C(C)(C)C(=O)N4C)CC2)cc1`, the Potency is active: 16.4 µM. `CC(=O)c1ccc(NC(=O)COC(=O)C2C3CC4OC(=O)C2C4C3)cc1` (stereo not given): the “activity change, negative = growth inhibition” value was inactive: 34.6%.

`Cc1sc(NC(=O)c2cccs2)c(C(=O)OC(C)C)c1C`: the “activity change, negative = growth inhibition” value was inactive: -19.2%. Same read-out and setting: the result for `O=c1[nH]c2cc(Cl)ccc2c(O)c1-c1cccc(Oc2ccccc2)c1` reads inactive: -7.32%. As for `COC(=O)c1c(C)c2c(c(C)c1O)OC(=O)c1c(C)c(Cl)c(O)c(Cl)c1O2`, the activity change, negative = growth inhibition was inactive: 6.42% [at 9.04 µM].
